{"source": "PubChem BioAssay AID1346428", "about": "(National Center for Advancing Translational Sciences (NCATS), 2018)", "note": "The campaign covered roughly 48,000 compounds. About 1,200 (2.5%) were called active. About 2% were inconclusive and are not listed.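 Rule for the calls: active = activation of at least 60% and not above a set upper limit (about 1 call in 100 departs from these limits); inconclusive = activation of 40% to 60%, or above that upper limit; inactive = activation under 40%.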 This is one part of the list.", "data": [{"biological_target": "Probable G-protein coupled receptor 32 (Homo sapiens) (UniProt O75388)", "sequence (O75388 whole entry, looked up)": "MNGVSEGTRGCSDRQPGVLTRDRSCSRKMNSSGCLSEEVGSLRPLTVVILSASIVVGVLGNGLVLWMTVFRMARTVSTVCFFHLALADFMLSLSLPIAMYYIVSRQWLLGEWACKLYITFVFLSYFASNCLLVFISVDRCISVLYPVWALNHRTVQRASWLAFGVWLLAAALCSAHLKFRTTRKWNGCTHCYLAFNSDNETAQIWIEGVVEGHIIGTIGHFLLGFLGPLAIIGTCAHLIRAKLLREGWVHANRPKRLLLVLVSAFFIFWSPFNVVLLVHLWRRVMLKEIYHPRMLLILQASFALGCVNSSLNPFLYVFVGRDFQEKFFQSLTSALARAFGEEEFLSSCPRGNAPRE", "experiment": "qHTS for Agonists of Human Resolvin D1 Receptor DRV1; note: 0% is about no effect", "conditions": "CHO-K1 GPR32 beta-arrestin PathHunter luminescence, 90 min; at 76.9 µM; active compounds read high; zero percent set by DMSO-only wells", "method_in_brief": "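Luminescent readout of beta-Gal complementation quantifies ligand-induced beta-arrestin association with GPR32 in CHO-K1 cells; 90 min compound incubation at 37 °C, detection 1 h at room temperature.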", "values": [{"smiles": "Cc1oc(-c2ccccc2Cl)nc1CS(=O)CC(=O)NCc1ccc(Cl)cc1", "note": "(stereo not given)", "activation": "inactive: -1.69%"}, {"smiles": "Cc1ccc(S(=O)(=O)N2CCc3cc(C(=O)Nc4ccc(C(F)(F)F)cc4)ccc32)cc1", "activation": "inactive: -3.69%"}, {"smiles": "O=C(CSc1nc2c([nH]c3ccccc32)c(=O)n1-c1cccc(Cl)c1)NCC1CCCO1", "note": "(stereo not given)", "activation": "inactive: -3.98%"}, {"smiles": "COc1ccc(CNS(=O)(=O)c2cc3c4c(c2)CCN4C(=O)CC3)cc1", "activation": "inactive: -17.7%"}, {"smiles": "Fc1ccc(-c2ccc(CNCCSc3nnnn3-c3ccccc3)o2)cc1", "activation": "inactive: 23%"}, {"smiles": "O=S(=O)(Nc1nc2ccccc2nc1Nc1ccccc1Br)c1ccccc1", "activation": "inactive: -1.82%"}, {"smiles": "Cc1ccc(COc2ccc(-c3cc(C(F)(F)F)n4nc(C)cc4n3)cc2)cc1", "activation": "inactive: -3.03%"}, {"smiles": "CC1CCc2c(sc(NC(=O)c3cc(-c4cccc(Cl)c4)on3)c2C(N)=O)C1", "note": "(stereo not given)", "activation": "inactive: -12.1%"}, {"smiles": "Cc1ccc(NC(=O)Cc2coc3ccc(C(C)C)cc23)c(C)c1", "activation": "inactive: 4.54%"}, {"smiles": "CCOc1ccc(-c2cn(-c3ccc(C)cc3)c(SCC(=O)Nc3ccc(C)cc3)n2)cc1", "activation": "inactive: -22.1%"}, {"smiles": "COc1cccc(CNC(=O)C(C)n2ncn3cccc3c2=O)c1OC", "note": "(stereo not given)", "activation": "inactive: 1.81%"}, {"smiles": "O=C(Cn1c2ncccc2c(=O)n1-c1ccccc1)NCc1ccccc1Cl", "activation": "inactive: -6.41%"}, {"smiles": "Cc1cc(N2CCCCC2)nc2ccc(NC(=O)/C=C/c3ccc(OC(C)C)cc3)cc12", "activation": "inactive: 1.38%"}, {"smiles": "COC(=O)c1c(Oc2ccc(OC)cc2)nnc(-c2ccccc2)c1-c1ccccc1", "activation": "inactive: -20.3%"}, {"smiles": "CCCCOc1ccc(C2=NC(c3cccs3)=Nc3ccc(CC)cc3N2)cc1", "activation": "inactive: -24.5%"}, {"smiles": "CC(C)CC(=O)Nc1nc2nc(-c3ccccc3)cc(=O)n2[nH]1", "activation": "inactive: -8.63%"}, {"smiles": "Cc1ccc(NC(=O)c2cnc(N3CCCCC3)c3ccccc23)c(C)c1", "activation": "inactive: -2.62%"}, {"smiles": "COCCCNC(=O)C1CCN(C(=O)c2cnn(-c3ccccc3)c2-n2cccc2)CC1", "activation": "inactive: -25.9%"}, {"smiles": "CCCN1CCN(C(=O)Cn2c(-c3cccs3)cc3ccccc32)CC1", "activation": "inactive: -11.4%"}, {"smiles": "Cc1cccc(NC(=O)N2CCN(C(=O)c3nsc4ccccc34)CC2)c1C", "activation": "inactive: -8.64%"}, {"smiles": "COc1ccc(CNC(=O)CCCn2nc(C)c3sc4ccccc4c3c2=O)cc1OC", "activation": "inactive: -6.24%"}, {"smiles": "CCOc1ccccc1CNC(=O)c1ccc(N2Cc3ccccc3Oc3ncccc32)s1", "activation": "inactive: -16.9%"}, {"smiles": "CCOC(=O)c1ccc(O)c(O)c1", "activation": "inactive: 41.1%"}, {"smiles": "Cc1ccc(N2C(=O)NC(NS(=O)(=O)c3ccccc3)(C(F)(F)F)C2=O)cc1C", "note": "(stereo not given)", "activation": "inactive: 10.8%"}, {"smiles": "COc1cccc(NC(=O)CN2C(=O)CSc3ccc(S(=O)(=O)N4CCCC4)cc32)c1", "activation": "inactive: -20.6%"}, {"smiles": "Cc1ccc2c(CC(=O)Nc3ccc(S(=O)(=O)N4CCCCC4C)cc3)coc2c1", "note": "(stereo not given)", "activation": "inactive: -14.6%"}, {"smiles": "Cc1ccc(CNC(=O)c2cccn2-c2nnc(N3CCCC3)s2)cc1", "activation": "inactive: 6.79%"}, {"smiles": "COc1ccc(N2CCN(C(=O)c3cnn(-c4ccc(F)cc4)c3-n3cccc3)CC2)cc1", "activation": "inactive: 6.6%"}, {"smiles": "COC(=O)COc1ccc2oc(-c3ccc(OC)cc3)cc(=O)c2c1", "activation": "inactive: -1.8%"}, {"smiles": "Clc1ccc2c(c1)-c1c(cnc3cc(-c4ccccc4)nn13)CO2", "activation": "inactive: 4.5%"}, {"smiles": "O=C(Nc1ccc(Br)cc1F)C1CCN(c2nc3ccccc3[nH]2)CC1", "activation": "inactive: -19.4%"}, {"smiles": "CCC1CCCCN1CCCNC(=O)CN1C(=O)c2cccnc2Oc2ccc(C)cc21", "note": "(stereo not given)", "activation": "inactive: -3.45%"}, {"smiles": "Cc1ccc(CNC(=O)CCc2c(C)c3ccc(O)c(C)c3oc2=O)cc1", "activation": "inactive: -0.0146%"}, {"smiles": "CSc1cccc(Nc2cc(C(=O)NCCc3ccc(Cl)cc3)c3ccccc3n2)c1", "activation": "inactive: -4.59%"}, {"smiles": "CCOc1ccc(C(=O)Nc2nnc(S(=O)(=O)Nc3ccccc3)s2)cc1", "activation": "inactive: 8.75%"}, {"smiles": "CCOc1cc2[nH]c(=O)n(CCCCC(=O)N3CCN(c4ccc(OC)cc4)CC3)c(=O)c2cc1OCC", "activation": "inactive: -8.14%"}, {"smiles": "O=C1CCCc2cc(S(=O)(=O)N3CCCC(C(=O)Nc4ccc(F)c(Cl)c4)C3)ccc2N1", "note": "(stereo not given)", "activation": "inactive: 34.5%"}, {"smiles": "CCOc1ccc2nc(N3CCC(C(=O)Nc4ccccc4CC)CC3)sc2c1", "activation": "inactive: 10.1%"}, {"smiles": "CC1CN(C(=O)N2CCC(C(=O)N3CCN(c4ccccc4)CC3)CC2)c2cc(Cl)ccc2O1", "note": "(stereo not given)", "activation": "inactive: -19.4%"}, {"smiles": "Cc1cc(C)cc(NC(=O)c2cc(C)nc3c2c(C)nn3-c2ccccc2)c1", "activation": "inactive: 24.7%"}, {"smiles": "CCOc1ccc(NC(=O)c2cc3c(C)nn(-c4ccccc4)c3s2)cc1", "activation": "inactive: -18.6%"}, {"smiles": "Cc1ccc(OCC(=O)N(Cc2ccc(Cl)cc2)Cc2ccco2)cc1C", "activation": "inactive: -27.1%"}, {"smiles": "COc1ccc(NC(=O)Cn2c(=O)n(CCC(C)C)c(=O)c3cccnc32)cc1Cl", "activation": "inactive: -8.89%"}, {"smiles": "COc1cccc(-c2nc(SCC(=O)NCC3CCCO3)c(-c3ccc(C)cc3)[nH]2)c1", "note": "(stereo not given)", "activation": "inactive: -20.9%"}, {"smiles": "CCOc1ccc(C2CC(=O)NC(NC(=O)c3ccc(C)cc3)=N2)cc1", "note": "(stereo not given)", "activation": "inactive: -4.86%"}, {"smiles": "COc1ccc(NC(=O)c2ccc3c(=O)n4nc(Nc5ccccc5C)sc4nc3c2)cc1Cl", "activation": "inactive: 16.2%"}, {"smiles": "Cc1ccccc1Nc1cc(C(=O)NC2CCCC2)c2ccccc2n1", "activation": "inactive: 3.72%"}, {"smiles": "CC(C)NC(=O)C1CCC(Cn2c(=O)c3sccc3n(CC(=O)N3CCCC3)c2=O)CC1", "note": "(stereo not given)", "activation": "inactive: 2.15%"}, {"smiles": "CCN(C(=O)c1cc2c(=O)oc3ccccc3c2s1)c1ccc(C)c(C)c1", "activation": "inactive: -6.49%"}, {"smiles": "Cc1ccc(Cn2c(C(=O)O)c(CNC3CCCCC3)c3ccc(C)cc32)cc1", "activation": "inactive: -13.1%"}, {"smiles": "CCCOc1ccc(NC(=O)CC2C(=O)N(c3ccccc3)C(=O)N2Cc2ccc(F)cc2)cc1", "note": "(stereo not given)", "activation": "inactive: -25.7%"}, {"smiles": "Cc1cccc(Cn2cc(/C=C(/C#N)C(=O)Nc3cccc(Cl)c3)c3ccccc32)c1", "activation": "inactive: -13%"}, {"smiles": "CCOc1ccccc1NC(=O)Cn1c(=O)n(Cc2nc(C)no2)c(=O)c2ccccc21", "activation": "inactive: -8.53%"}, {"smiles": "Cc1ccc(C(=O)NCC(c2ccc3c(c2)OCO3)N2CCN(c3ccc(F)cc3)CC2)cc1", "note": "(stereo not given)", "activation": "inactive: -31.7%"}, {"smiles": "Cc1ccccc1C(=O)Nc1ccccc1OCc1cc(=O)n2ccccc2n1", "activation": "inactive: 2.3%"}, {"smiles": "Cc1cccc(CS(=O)(=O)Cc2ccc(C(=O)NCc3ccccc3)o2)c1", "activation": "inactive: -10.1%"}, {"smiles": "CCOc1ccc(CCNC(=O)c2c(C)oc3ncn(CC(C)C)c(=O)c23)cc1", "activation": "inactive: 29.4%"}, {"smiles": "Cc1cccc(-c2nc(S(=O)(=O)c3ccc(Cl)cc3)c(N3CCCCCC3)o2)c1", "activation": "inactive: -17.2%"}, {"smiles": "CCN(CC)c1nc2c(S(=O)(=O)c3ccccc3)nnn2c2ccc(Cl)cc12", "activation": "inactive: -25.6%"}, {"smiles": "CCOc1ccccc1CNC(=O)c1nc(-c2ccc(Cl)cc2)n2c1CCCCC2", "activation": "inactive: -22.6%"}, {"smiles": "Clc1ccccc1CNc1ncnc2c1nc1n2CCCC1", "activation": "inactive: 0.267%"}, {"smiles": "CCOc1ccc(C(=O)NCc2nnnn2-c2ccc(C)c(C)c2)cc1OCC", "activation": "inactive: 0.649%"}, {"smiles": "Cc1ncc(COP(=O)(O)O)c(C=O)c1O", "activation": "inactive: 19.9%"}, {"smiles": "CCc1nn(CC(=O)NCC(C)c2ccccc2)c(=O)c2cc3occc3n12", "note": "(stereo not given)", "activation": "inactive: 5.49%"}, {"smiles": "Cc1cc(C)c(NC(=O)CCN2C(=O)c3ccccc3Sc3ncccc32)c(C)c1", "activation": "inactive: -13.3%"}, {"smiles": "Cc1ccc(-n2c(=O)c3ccc(C(=O)NCc4ccccc4Cl)cc3n(CC(=O)Nc3cccc(Cl)c3)c2=O)cc1", "activation": "inactive: -8.41%"}, {"smiles": "Cc1nc2cc(C(=O)NCCC3=CCCCC3)ccc2n1-c1ccc(Br)cc1", "activation": "inactive: -26.9%"}, {"smiles": "CSc1nc(Nc2ccc(C)cc2C)cc(-c2ccccc2)n1", "activation": "inactive: -13.6%"}, {"smiles": "COC(=O)c1cc2c(cc1NC(=O)c1cnn(-c3ccccc3)c1-n1cccc1)OCO2", "activation": "inactive: 5.73%"}, {"smiles": "Cc1cccc(C(=O)Nc2nnc(S(=O)(=O)N(C)Cc3ccc(Cl)cc3)s2)c1", "activation": "inactive: 36.2%"}, {"smiles": "CCCCCNC(=O)c1ccc2c(c1)ncn2-c1cccc(C)c1", "activation": "inactive: 1.92%"}, {"smiles": "O=C1COc2ccc(-c3cc(-c4ccc(Cl)cc4)c4c(n3)-c3ccccc3OC4)cc2N1", "activation": "inactive: -8.77%"}, {"smiles": "CCOC(=O)CNC(=O)CSc1cn(CC(=O)N2CCCCCC2)c2ccccc12", "activation": "inactive: -10.7%"}, {"smiles": "CN(Cc1ccccc1)C(=O)C1CCN(S(=O)(=O)c2ccc3c(c2)oc(=O)n3C)CC1", "activation": "inactive: -0.643%"}, {"smiles": "CCC1NC(=O)c2cc(S(N)(=O)=O)c(Cl)cc2N1", "note": "(stereo not given)", "activation": "inactive: 5.77%"}, {"smiles": "Cc1cccc(Cn2c(=O)n(CC3CCC(C(=O)NC(C)C)CC3)c(=O)c3sccc32)c1", "note": "(stereo not given)", "activation": "inactive: 15%"}, {"smiles": "COc1ccc(NC(=O)CN2C(=O)C(C)(C)c3ccccc32)cc1Cl", "activation": "active: 103%"}, {"smiles": "CSc1ccc(CCNC(=O)C2=C(C)C(=O)OC23CCCCC3)cc1", "activation": "inactive: -15.1%"}, {"smiles": "COc1cc(CNC(=O)c2sc3ncccc3c2-n2cccc2)cc(OC)c1OC", "activation": "inactive: 8.5%"}, {"smiles": "COc1cccc(C2CC(=O)Nc3cc(OC)c(OC)c(OC)c32)c1OC(C)C", "note": "(stereo not given)", "activation": "inactive: 9.27%"}, {"smiles": "N#Cc1nc(-c2ccc(COc3ccccc3)o2)oc1NCc1cccnc1", "activation": "inactive: -3.68%"}, {"smiles": "COc1ccccc1CN1CCC(CNS(=O)(=O)c2cc(-c3onc(C)c3C)ccc2OC)CC1", "activation": "inactive: -2.97%"}, {"smiles": "Cc1nn(-c2ccccc2)c(OC(=O)c2cccc(Br)c2)c1S(=O)(=O)c1ccccc1", "activation": "inactive: -14.7%"}, {"smiles": "Cc1ccc(-c2nnc(Nc3ccc(Br)cc3)c3ccccc23)cc1S(=O)(=O)NCC1CCCO1", "note": "(stereo not given)", "activation": "inactive: -27.7%"}, {"smiles": "Cc1nc(N2CCCC2)c2c(C(=O)N3CCN(c4ccc(F)cc4)CC3)c(C)oc2n1", "activation": "inactive: -18.9%"}]}]}
